{"source": "patent US8642544B2", "about": "“N-terminus conformationally constrained GLP-1 receptor agonist compounds” (Amylin Pharmaceuticals, LLC, priority 2009, dated 2014)", "note": "At least one structure is not confirmed: it was looked up by name or label, or the drawing left a doubt.", "data": [{"target": "T1, GLP-1 receptor (Rattus norvegicus, UniProt P32301)", "T1 construct": "96-well assay plate containing RIN m5f cell membranes in an ATP/GTP mixture; endogenous in cells; host or cells: RIN m5f cell membranes", "T1 sequence (P32301 22-463)": "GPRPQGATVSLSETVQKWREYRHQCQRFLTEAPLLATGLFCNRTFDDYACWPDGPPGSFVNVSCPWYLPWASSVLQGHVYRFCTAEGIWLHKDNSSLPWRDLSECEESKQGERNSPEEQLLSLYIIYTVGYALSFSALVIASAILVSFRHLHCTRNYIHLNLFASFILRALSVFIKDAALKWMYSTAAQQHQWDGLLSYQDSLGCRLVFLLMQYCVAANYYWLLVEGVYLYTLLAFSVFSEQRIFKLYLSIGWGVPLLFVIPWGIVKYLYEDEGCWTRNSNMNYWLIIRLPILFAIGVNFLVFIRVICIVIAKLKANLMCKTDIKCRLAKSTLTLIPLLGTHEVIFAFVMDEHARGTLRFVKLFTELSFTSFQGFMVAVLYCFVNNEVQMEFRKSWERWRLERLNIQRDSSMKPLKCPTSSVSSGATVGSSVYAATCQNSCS", "test": "in vitro functional assay at the GLP-1 receptor (cyclase, cAMP production in RIN m5f cell membranes)", "type": "biochemical", "details": "read-out: Cyclase GLP-1 Receptor EC50, Table 1, cAMP production (AlphaScreen)", "procedure": "The compounds shown in Table 1 below were analyzed in an in vitro functional assay at the GLP-1 receptor. The assay was conducted as follows: Membrane fractions were prepared from confluent cultures of RIN m5f cells. Compounds were serially diluted with an assay buffer, and then added to a 96-well assay plate containing RIN m5f cell membranes in an ATP/GTP mixture. Cyclase activities were determined by measuring the production of cAMP induced through GLP-1 receptor activation. Quantification of cAMP production was achieved through a competitive chemiluminescence assay with a biotinylated-cAMP probe using Perkin Elmer Fusion™-Alpha Microplate Analyzer (AlphaScreen™ technology). The compound EC50 values were obtained through fitting the concentration-response curves to a four-parameter logistic equation within GraphPad PRISM® software.", "units": {"EC50": "nM"}, "values": [{"smiles": "CC[C@H](C)[C@H](NC(=O)[C@H](Cc1ccccc1)NC(=O)[C@H](CC(C)C)NC(=O)[C@H](CCCNC(=N)N)NC(=O)[C@@H](NC(=O)[C@H](C)NC(=O)[C@H](CCC(=O)O)NC(=O)[C@H](CCC(=O)O)NC(=O)[C@H](CCC(=O)O)NC(=O)[C@H](CC(C)C)NC(=O)[C@H](CCC(N)=O)NC(=O)[C@H](CCCCN)NC(=O)[C@H](CO)NC(=O)[C@H](CC(C)C)NC(=O)[C@H](CC(=O)O)NC(=O)[C@H](CO)NC(=O)[C@@H](NC(=O)[C@H](Cc1ccccc1)NC(=O)[C@@H](NC(=O)CNC(=O)[C@@H]1CCCN(C(=O)[C@H]2CCCN(C(=O)[C@@H](N)Cc3c[nH]cn3)C2)C1)[C@@H](C)O)[C@@H](C)O)C(C)C)C(=O)N[C@@H](CCC(=O)O)C(=O)N[C@@H](Cc1c[nH]c2ccccc12)C(=O)N[C@@H](CC(C)C)C(=O)N[C@@H](CCCCN)C(=O)N[C@@H](CCC(N)=O)C(=O)NCC(=O)NCC(=O)N1CCC[C@H]1C(=O)N[C@@H](CO)C(=O)N[C@@H](CCCCN)C(=O)N[C@@H](CCC(=O)O)C(=O)N[C@H](C(=O)N[C@H](C(=O)N[C@@H](CO)C(N)=O)[C@@H](C)CC)[C@@H](C)CC", "note": "[15D]", "EC50": 1.7}, {"smiles": "CC[C@H](C)[C@H](NC(=O)[C@H](Cc1ccccc1)NC(=O)[C@H](CC(C)C)NC(=O)[C@H](CCCNC(=N)N)NC(=O)[C@@H](NC(=O)[C@H](C)NC(=O)[C@H](CCC(=O)O)NC(=O)[C@H](CCC(=O)O)NC(=O)[C@H](CCC(=O)O)NC(=O)[C@H](CC(C)C)NC(=O)[C@H](CCC(N)=O)NC(=O)[C@H](CCCCN)NC(=O)[C@H](CO)NC(=O)[C@H](CC(C)C)NC(=O)[C@H](CC(=O)O)NC(=O)[C@H](CO)NC(=O)[C@@H](NC(=O)[C@H](Cc1ccccc1)NC(=O)[C@@H](NC(=O)CNC(=O)[C@H]1CCCN1C(=O)CNC(=O)[C@@H](N)Cc1c[nH]cn1)[C@@H](C)O)[C@@H](C)O)C(C)C)C(=O)N[C@@H](CCC(=O)O)C(=O)N[C@@H](Cc1c[nH]c2ccccc12)C(=O)N[C@@H](CC(C)C)C(=O)N[C@@H](CCCCN)C(=O)N[C@@H](CCC(N)=O)C(=O)NCC(=O)NCC(=O)N1CCC[C@H]1C(=O)N[C@@H](CO)C(=O)N[C@@H](CCCCN)C(=O)N[C@@H](CCC(=O)O)C(=O)N[C@H](C(=O)N[C@H](C(=O)N[C@@H](CO)C(N)=O)[C@@H](C)CC)[C@@H](C)CC", "note": "[2C]", "EC50": 6}, {"smiles": "CC[C@H](C)[C@H](NC(=O)[C@H](Cc1ccccc1)NC(=O)[C@H](CC(C)C)NC(=O)[C@H](CCCNC(=N)N)NC(=O)[C@@H](NC(=O)[C@H](C)NC(=O)[C@H](CCC(=O)O)NC(=O)[C@H](CCC(=O)O)NC(=O)[C@H](CCC(=O)O)NC(=O)[C@H](CC(C)C)NC(=O)[C@H](CCC(N)=O)NC(=O)[C@H](CCCCN)NC(=O)[C@H](CO)NC(=O)[C@H](CC(C)C)NC(=O)[C@H](CC(=O)O)NC(=O)[C@H](CO)NC(=O)[C@@H](NC(=O)[C@H](Cc1ccccc1)NC(=O)[C@@H](NC(=O)[C@@H]1CCCN(C(=O)[C@H]2CCCN(C(=O)[C@H](C)NC(=O)[C@@H](N)Cc3c[nH]cn3)C2)C1)[C@@H](C)O)[C@@H](C)O)C(C)C)C(=O)N[C@@H](CCC(=O)O)C(=O)N[C@@H](Cc1c[nH]c2ccccc12)C(=O)N[C@@H](CC(C)C)C(=O)N[C@@H](CCCCN)C(=O)N[C@@H](CCC(N)=O)C(=O)NCC(=O)NCC(=O)N1CCC[C@H]1C(=O)N[C@@H](CO)C(=O)N[C@@H](CCCCN)C(=O)N[C@@H](CCC(=O)O)C(=O)N[C@H](C(=O)N[C@H](C(=O)N[C@@H](CO)C(N)=O)[C@@H](C)CC)[C@@H](C)CC", "note": "[15B]", "EC50": 1000}, {"smiles": "CC[C@H](C)[C@H](NC(=O)[C@H](Cc1ccccc1)NC(=O)[C@H](CC(C)C)NC(=O)[C@H](CCCNC(=N)N)NC(=O)[C@@H](NC(=O)[C@H](C)NC(=O)[C@H](CCC(=O)O)NC(=O)[C@H](CCC(=O)O)NC(=O)[C@H](CCC(=O)O)NC(=O)[C@H](CC(C)C)NC(=O)[C@H](CCC(N)=O)NC(=O)[C@H](CCCCN)NC(=O)[C@H](CO)NC(=O)[C@H](CC(C)C)NC(=O)[C@H](CC(=O)O)NC(=O)[C@H](CO)NC(=O)[C@@H](NC(=O)[C@H](Cc1ccccc1)NC(=O)[C@@H](NC(=O)CNC(=O)[C@@H]1C[C@@H](NC(=O)CNC(=O)[C@@H](N)Cc2c[nH]cn2)CN1)[C@@H](C)O)[C@@H](C)O)C(C)C)C(=O)N[C@@H](CCC(=O)O)C(=O)N[C@@H](Cc1c[nH]c2ccccc12)C(=O)N[C@@H](CC(C)C)C(=O)N[C@@H](CCCCN)C(=O)N[C@@H](CCC(N)=O)C(=O)NCC(=O)NCC(=O)N1CCC[C@H]1C(=O)N[C@@H](CO)C(=O)N[C@@H](CCCCN)C(=O)N[C@@H](CCC(=O)O)C(=O)N[C@H](C(=O)N[C@H](C(=O)N[C@@H](CO)C(N)=O)[C@@H](C)CC)[C@@H](C)CC", "note": "[2J]", "EC50": 7.2}, {"smiles": "CC[C@H](C)[C@H](NC(=O)[C@H](Cc1ccccc1)NC(=O)[C@H](CC(C)C)NC(=O)[C@H](CCCNC(=N)N)NC(=O)[C@@H](NC(=O)[C@H](C)NC(=O)[C@H](CCC(=O)O)NC(=O)[C@H](CCC(=O)O)NC(=O)[C@H](CCC(=O)O)NC(=O)[C@H](CC(C)C)NC(=O)[C@H](CCC(N)=O)NC(=O)[C@H](CCCCN)NC(=O)[C@H](CO)NC(=O)[C@H](CC(C)C)NC(=O)[C@H](CC(=O)O)NC(=O)[C@H](CO)NC(=O)[C@@H](NC(=O)[C@H](Cc1ccccc1)NC(=O)[C@@H](NC(=O)CNC(=O)C1CN(C(=O)CNC(=O)[C@@H](N)Cc2c[nH]cn2)C1)[C@@H](C)O)[C@@H](C)O)C(C)C)C(=O)N[C@@H](CCC(=O)O)C(=O)N[C@@H](Cc1c[nH]c2ccccc12)C(=O)N[C@@H](CC(C)C)C(=O)N[C@@H](CCCCN)C(=O)N[C@@H](CCC(N)=O)C(=O)NCC(=O)NCC(=O)N1CCC[C@H]1C(=O)N[C@@H](CO)C(=O)N[C@@H](CCCCN)C(=O)N[C@@H](CCC(=O)O)C(=O)N[C@H](C(=O)N[C@H](C(=O)N[C@@H](CO)C(N)=O)[C@@H](C)CC)[C@@H](C)CC", "note": "[2E]", "EC50": 2.15}, {"smiles": "CC[C@H](C)[C@H](NC(=O)[C@H](Cc1ccccc1)NC(=O)[C@H](CC(C)C)NC(=O)[C@H](CCCNC(=N)N)NC(=O)[C@@H](NC(=O)[C@H](C)NC(=O)[C@H](CCC(=O)O)NC(=O)[C@H](CCC(=O)O)NC(=O)[C@H](CCC(=O)O)NC(=O)[C@H](CC(C)C)NC(=O)[C@H](CCC(N)=O)NC(=O)[C@H](CCCCN)NC(=O)[C@H](CO)NC(=O)[C@H](CC(C)C)NC(=O)[C@H](CC(=O)O)NC(=O)[C@H](CO)NC(=O)[C@@H](NC(=O)[C@H](Cc1ccccc1)NC(=O)[C@@H](NC(=O)CNC(=O)[C@@H]1CCN1C(=O)CNC(=O)[C@@H](N)Cc1c[nH]cn1)[C@@H](C)O)[C@@H](C)O)C(C)C)C(=O)N[C@@H](CCC(=O)O)C(=O)N[C@@H](Cc1c[nH]c2ccccc12)C(=O)N[C@@H](CC(C)C)C(=O)N[C@@H](CCCCN)C(=O)N[C@@H](CCC(N)=O)C(=O)NCC(=O)NCC(=O)N1CCC[C@H]1C(=O)N[C@@H](CO)C(=O)N[C@@H](CCCCN)C(=O)N[C@@H](CCC(=O)O)C(=O)N[C@H](C(=O)N[C@H](C(=O)N[C@@H](CO)C(N)=O)[C@@H](C)CC)[C@@H](C)CC", "note": "[2D]", "EC50": 0.04}]}]}
